Measurements taken from the supplement of paper PMC10126150.
Values marked as one replicate rest on one cluster of the flow cell; about a third of the high ones do not repeat.

Test system: ATP
Assay: switch fluorescence ratio, 500 uM ATP over buffer (Cy3 cluster intensity, sum of 5 cycles each) (fold (ratio)); higher = stronger signal-on switching upon ATP binding; sequences stand for … in TCGTCGGCAGCGTCAGATGTGTATAAGAGACAGTTTTTTTTTTTTTTTTTTTTTTTTT…TC
Conditions: aptamer strand: ATP DNA aptamer (quencher-CACCTGGGGGAGTATTGCGGAGGAAGG + anchor), 100 nM annealed; ATP concentration: 500 uM; one replicate
Procedure, shortened: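 Clusters with intensities outside 100-1000 RFU were excluded. The remaining Cy3-labelled switching-strand clusters on a modified Illumina MiSeq flow-cell had been annealed to 100 nM quencher-labelled ATP aptamer and imaged in selection buffer, then after 15 min with 500 uM ATP at 22 °C, for five cycles separated by NaOH stripping and re-annealing. The fluorescence ratio, averaged per switch-domain sequence, is each cluster's summed target-cycle Cy3 intensity over its summed buffer-cycle Cy3 intensity.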
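Further: ATP exposure 15 min at 22 °C before imaging.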

Sequence	switch fluorescence ratio
ATCCTTGTAC	1.12
ATTGTAGTCC	0.994
GAGGTTGTAA	0.995
TCGTTACTAG	1.01
TCTATTACTG	0.938
AAGCGGGATT	0.993
GTTAGCCCTA	0.977
TTACGTGAAC	1.21
ATGGATGTCC	1.05
CGTACTTCCC	1.58
AAGGCCGAG	0.993
CGCGGGGTTA	1.06
CGAAAGAGCC	1.01
GCAATGTGAG	1.28
CAGCGTGGGA	1.03
GCCATGCCTG	1.07
AACTTGTGGG	0.984
CGTCTATGGA	1.02
TCTCAGGT	0.981
ACGGGCATTG	1
TTCCGTCTTA	1
ATCTAAACCG	1.1
TGCCCACAGC	0.999
TGAGATATAA	1.03
CCAATGTAAA	1
AACCCACTAC	1.46

Sequence	switch fluorescence ratio
CCCTAGTAAT	2
ACACGATAAG	1.09
ATTTGCCTTC	1.13
TTCCTGTTCG	1.04
CCCCACAGCC	1.3
AAAATCGGGG	0.996
TCCGGAGATT	1.77
AACAGATGAT	1.03
GGGTGTCT	1.05
CAGTCGAGTC	0.967
ACGTCTACCT	1.35
GATTATCGA	1.01
ACTGTTTTAC	1.03
TTTCCTCCAG	2.23
CGGGGAATTC	0.995
TTGTCATGGC	0.995
TGGATGATA	1.03
TAGACATGTG	0.926
TTCCATTTCC	1.13
GACGGGAGGT	0.985
CTGCACGAGG	1.11
CATTTTCAGA	1
CGCGACGATG	1.03
TCCATAATTT	0.974
CTATTACGAC	1.12
GATTGGGTTA	0.979

Sequence	switch fluorescence ratio
TTTTCAGTGC	1.75
AGTATGGTTT	0.955
CGCATTCTGG	1.09
TCCCCATTG	1.12
TTAATTATTA	0.993
AGCGGCATAA	1.04
CTAAGCAACA	1.44
TCGCAACGGG	1.16
GTACGGGGGG	1.01
AACGCAAGCG	1.06
TCCGATTCAT	1.24
CGGCAGCGCG	0.991
AAACTGTTCG	1.06
CTGTTTAGAT	0.997
AGGTGTCTAG	0.996
GAAGTTCGGG	1
GCGGACTT	1.06
AATCTAATTT	1.02
CGTACCGCC	1.15
GGTGAATACA	0.964
TCTTTGTTCG	0.994
TATGTTCGAT	0.991
CGAATTTTAC	1.03
AATGTGAGC	0.977
AAAAATCCAT	1
CATTGACTCG	1.02

Sequence	switch fluorescence ratio
ACAGATGCAT	1.05
GAGATAGAAG	0.997
GAGCGTCCTT	0.974
TCCGCGTAGA	1.05
CGTTACAATC	1.37
ATTTTTTCAT	1
TTGGAAGTCG	0.993
TTTTCGAGAA	1.01
AACCATCGAC	1.12
TTATGAGTT	0.98
TTGACACATC	1.02
CGGTGTCGTC	0.963
CAAATTACGA	1.07
GAATCGGTGG	1.1
GGGGACGCA	1.1
ATGTACTTCC	2.05
GCTGAATTTT	0.973
AGGCCCTACC	1.06
GATGGGCTCC	0.97
GTGTACCTTG	1
CGATTGATAC	1.86
TTGCCCAATC	1.45
GGCTGGTGGG	1.01
TACCCACTCT	1.35
TAAACGTCAG	1.03
CGACTCGGGA	0.95

Sequence	switch fluorescence ratio
ATCGCTAGGG	1.03
ACTTGATAAT	0.999
TTGCTTGACG	0.99
CGGTGTTATT	1.02
GTATGACAGG	0.971
CCCCTAATC	1.21
ACTAATTGTT	1.01
CGTCCATCGT	1.01
ACTACAAAGG	1.08
TTCAAGGTGT	1.4
GATTGGTGTA	1.02
GCGGATCGTT	0.999
TAGCTATTAT	1.04
CATCTTCACG	0.954
TACGCAACA	1.79
CCCATTGCGG	0.988
GAGGCTGAAC	1.13
CGTTACTTCA	1.06
TGGTGTAAAG	0.989
TCCCCGGCTG	2.45
TCAGGATATT	1.02
GAAGGCTGGT	1.03
CAGGCGGCTT	1.04
TGAATCAAGT	1.01
GGGAATCACG	0.999
AGGGACCACC	1.05

Sequence	switch fluorescence ratio
CCATCCATTT	1.13
CGGTCCTATA	0.992
AGCCAGCCGA	0.972
GAGATTTGAT	1.02
ATGACATGAG	0.985
CACTGTGCGA	1.13
TTGAGCGG	1.15
ACCTCTATTT	1.1
TAAGACTTTC	1.03
AGCTGATGTA	1.01
CGGCTGACGT	1.01
ATCAACATG	1.07
GATGGAAAC	1.08
AGAGCGACCA	0.972
CCTTGTAGGA	0.943
TAAGAGATAA	1.01
CAGCCTGTCT	0.989
AAACGCGGGG	1.21
CAATAGTGGT	0.997
CAGTAGGGGC	1.01
ATACGGGGAC	1.07
TCACGGTGAA	1.06
GACTCTTCGG	1.01
AATCGCGCAC	1.4
CGAGTATGAG	1.01
CGGTACAGAC	1.1

Sequence	switch fluorescence ratio
ACGAGCGAAT	1.56
ATAAATAGAC	1.11
TCCGTTCCTA	1.07
GATGGAAAGC	1.1
AAGTACCATA	1.27
CCTGAAGTAT	1
CGCGTCCTAA	0.999
TCGTTCGGGT	1.04
TGGCTATCTT	0.993
TTTCGAAGT	1.02
GAATGCTTCT	0.997
TCTAATGGAG	0.968
TATACCGCGG	0.928
GCTGTTGACG	0.983
CGCCAATAAA	1.22
GTGAGTTCAT	0.951
ACCAGGACTT	1.03
ATGGTGTACG	0.982
ATGGCGGCTG	0.978
TGAGCATGAT	1.05
TGTTCAGGTT	3.37
ACTTCTGACT	1.06
AGTGAGGTGG	1.01
ATAAGGGCAT	1.02
CTGACCGGGA	1.08
CGATATGAGA	1.02

Sequence	switch fluorescence ratio
GTGTGAAGAT	1.04
TTTATCCTGT	1.01
CGATGAGTTA	0.976
CGGCCGCTTA	1.7
CGCGCAAAAA	1.09
ATGGGCATAA	1.04
TTTTGTCGG	1.01
CTTATCTCTA	1.01
TTAAAATAGT	0.993
CGAACAAAGC	1.03
TTTTATAAGC	0.958
ATTCGACATA	1.03
CGGGAGGTCA	0.961
CCGCTGAGTG	1.49
CCTGTAGCGC	1.49
TAGCCGTCCC	1.15
TGCAAAATGT	1.02
TAAGGGACCG	1.16
CCTGGTGCTT	1.53
